From PubChem BioAssay AID1656 (Sanford-Burnham Center for Chemical Genomics, 2009)
In all, about 240,000 compounds went through this assay and about 950 (0.4%) were called active. This list was built around the results that the source calls inconclusive (neither active nor inactive); the mix of calls is not that of the screen.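 How the source made its calls: active means lipid droplet intensity inhibited by at least 50%, with more than 500 cells counted; inconclusive means wells with under 300 cells, treated as cytotoxic; inactive means the rest.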

Assay: inhibitors of hepatocyte lipid droplet formation, primary screen, imaging, high-throughput imaging, BODIPY stain (AID 1656)
Conditions: AML12 mouse hepatocytes, oleate lipid droplets, at 6.5 µM, active compounds read high
How it was run: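 Assay system: AML12 hepatocytes (mouse); Probe or stimulus: oleic acid at 100 µM to induce lipid droplet formation; Dosing: compound at 6.5 µM only; Schedule: compound with oleate, overnight; Detection: fluorescence imaging, 20x objective, two fields per well; Measure: % inhibition of lipid droplet signal.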

SMILES | inhibition
C/C=C/c1ccccc1OCc1ccc(C(=O)O)o1 | inconclusive: -154%
COc1ccc(S(=O)(=O)NC2CCSc3ccccc32)cc1OC (centres undefined) | inactive: -2.2%
COc1cccc(-n2nc(C#N)c(Cl)cc2=O)c1 | inconclusive: -133%
COc1cc(OC)cc(C(=O)N[C@H](C(=O)Nc2nc3ccccc3[nH]2)C(C)C)c1 | inconclusive: -102%
COc1ccc(CCNc2nnc(Sc3nnnn3-c3ccccc3)s2)cc1OC | inconclusive: -115%
CCOC(=O)Cn1ccc(NC(=O)COc2ccc(F)cc2F)n1 | inactive: 15.1%
O=C(N/N=C/c1ccccc1Cl)c1[nH]c2ccc(Br)cc2c1-c1ccccc1 | inconclusive: -34.2%
Cc1c(C(=O)OCCOC(C)C)[nH]c2c1C(=O)CC(c1ccco1)C2 (centres undefined) | inconclusive: -110%
COc1cccc2sc(Nc3nc(-c4cc5ccccc5oc4=O)cs3)nc12 | inconclusive: -62.2%
CCN(CC)S(=O)(=O)c1ccc(N2C(=O)CC2(/C=C/c2ccccc2)C(=O)NC2CCCC2)cc1 (centres undefined) | active: 62.8%
O=C(NCCOc1ccccc1)C1CCC(=O)N(CCCN2CCCC2=O)C1 (centres undefined) | inconclusive: 117%
COc1ccc(NC(=O)CSc2nc3ccccc3nc2N2CCCC2)cc1 | active: 50%
Cc1c(OC(C)C(=O)NCCCN2CCOCC2)ccc2c1oc(=O)c1ccccc12 (centres undefined) | inconclusive: 118%
CCCCN(C(=O)c1ccc(Cl)c([N+](=O)[O-])c1)c1c(N)n(CCC)c(=O)[nH]c1=O | inactive: 27.3%
COc1ccc(CCNC(=O)c2cc3c(=O)n4ccccc4nc3n(CCCN3CCOCC3)c2=N)cc1OC | inconclusive: -260%
N#Cc1c(SCC(=O)N2CCCCC2)nsc1SCC(=O)N1CCCCC1 | inactive: 1%
COc1cccc(NC(=O)CC(=O)c2ccc([N+](=O)[O-])cc2)c1 | inactive: 6%
CCCc1nc2oc3c(NCCCN(C)C)ncnc3c2c2c1CCCC2 | inconclusive: -64.5%
CCOC(=O)c1c(NC(=O)CSc2n[nH]c(CNc3ccccc3)n2)sc(C)c1C | inactive: 1.5%
COc1ccc(Cc2nnc(NC(=O)Nc3ccc(F)cc3)s2)cc1OC | inconclusive: 151%
COC(=O)c1ccc(C)c(NS(=O)(=O)c2ccc(OC)cc2)c1 | inconclusive: -64.2%
S=C(NCCc1ccccc1)Nc1ccc(Br)cn1 | inactive: 2.1%
CC(=O)c1cccc(NC(=O)CSc2nnnn2C2CCCC2)c1 | inactive: -3.2%

SMILES | inhibition
COc1cc(CNc2ccc3c(c2)OCCO3)ccc1OCC(N)=O | inconclusive: 126%
COc1cccc(NC(=O)CSCc2cc(=O)n3ccsc3n2)c1 | inactive: 33.6%
COC(=O)c1c(NC(NC(C)=O)C(Cl)(Cl)Cl)sc2c1CCCC2 (centres undefined) | inactive: 14.5%
CC1Cc2cc(S(=O)(=O)NCCC(=O)N(C)Cc3ccccc3)ccc2N1C(=O)C1CC1 (centres undefined) | active: 61%
CN(C)c1ccc(C(=O)c2ccc(N(C)C)c3ccccc23)cc1 | inconclusive: -350%
CC(=O)OCC(=O)[C@@]1(O)CC[C@H]2[C@@H]3CCC4=CC(=O)CC[C@]4(C)[C@H]3[C@@H](O)C[C@@]21C | active: 50.4%
COCCn1c(=NC(=O)/C=C/c2ccccc2Cl)sc2cc(NC(C)=O)ccc21 | inconclusive: 121%
O=C(N/N=C/c1cccs1)c1cc(-c2ccncc2)nc2ccccc12 | inconclusive: -256%
O=C(CSc1c(F)c(F)cc(F)c1F)Nc1ccc(C2SCCS2)cc1 | inactive: 2.4%
O=C(N/N=C\c1cn[nH]c1-c1ccc(Cl)cc1)c1cccs1 | inactive: 17.7%
COC(=O)c1sc(N2C(=O)c3oc4ccccc4c(=O)c3C2c2cccc(O)c2)nc1C (centres undefined) | inactive: 1%
O=C1OCC2=C1C(c1ccc(F)cc1)c1cc3c(cc1N2)OCO3 (centres undefined) | inconclusive: -152%
COC(=O)/C=C/c1c(C)nc(NCc2ccccc2)nc1Cl | inactive: 9.2%
CC(=O)Nc1ccc(/C(C)=N/Nc2nc(Nc3ccccc3)nc(N3CCOCC3)n2)cc1 | inconclusive: -113%
COC(=O)c1ccc(C2=NOC(C)(c3sc(-c4ccc(Cl)cc4)nc3C)C2)cc1 (centres undefined) | active: 55.6%
COc1cccc(CNn2cnnc2)c1O | inactive: 22.6%
CCOC(=O)c1cc(-c2ccc(C)cc2)nc2nc(SC)[nH]c(=O)c12 | active: 104%
Cc1cc(C)c(/C=N/NC(=O)c2nnn(-c3nonc3N)c2CN2CCC(C)CC2)c(C)c1 | inactive: 12.4%
CC1=C(C)/C(=N\OS(=O)(=O)c2ccc(C)cc2)C=CC1=O | inactive: 5.5%
Cc1noc(NS(=O)(=O)c2ccc(NC(=O)CC(C)C)cc2)c1C | inconclusive: -41.7%
Cc1ccc(S(=O)(=O)NNC(=O)C2COc3ccccc3O2)cc1 (centres undefined) | inconclusive: -2.5%
O=C(Nc1ccc(NS(=O)(=O)c2ccccc2)cc1)c1ccccc1 | inconclusive: -205%
CN1/C(=C\C=C(/C#N)C(=O)Nc2ccccc2F)C(C)(C)c2ccccc21 | inconclusive: -134%

SMILES | inhibition
O=C(NCCc1ccc(F)cc1)Nc1ccc([N+](=O)[O-])cc1 | inactive: 4.6%
O=C1C=C(Nc2cccc3cccnc23)c2ccccc2C1=O | inconclusive: -181%
Cc1ccc(NC(=O)/C=C/c2ccc([N+](=O)[O-])s2)c(C)c1 | inconclusive: -13.8%
CCOc1ccc(CCNC(=O)Cn2ccc3ccccc3c2=O)cc1OCC | active: 50%
CCCCCSc1nc(C)c(CC(=O)O)c(=O)[nH]1 | inactive: -2.1%
COC(CNC(=O)c1ccc2c(c1)nc(C)n2-c1ccc(F)c(F)c1)OC | inactive: -0.1%
C=C(C)Cn1c(N2CCC(Cc3ccccc3)CC2)nc2c1c(=O)[nH]c(=O)n2C | active: 63.6%
Cc1cc(C)cc(N(CC(=O)O)S(=O)(=O)c2c(C)noc2C)c1 | active: 58.3%
O=C(Nc1ccccc1F)C(=Cc1sc(N2CCOCC2)nc1-c1ccccc1)C(=O)Nc1ccccc1F | active: 67.9%
CCCc1cc(N2CCCC2)n2nc(C)c(-c3ccccc3)c2n1 | active: 59.9%
CCN(CC)c1ccc(/C=C2/C(=O)c3ccc(C(=O)O)cc3C2=O)cc1 | inactive: 0.8%
O=C(O)c1ccc(NS(=O)(=O)c2ccc(C(=O)Nc3ccccc3)cc2)cc1 | inactive: -2.4%
O=c1[nH][nH]c(=S)n1-c1ccccc1C(F)(F)F | inactive: -3.2%
CC1=Nc2ccccc2/C1=C\c1sc(Nc2ccc(C)cc2)nc1O | inconclusive: -194%
CCc1ccc(Nc2n[n+](C)c(-c3ccncc3)s2)cc1 | inactive: -2.4%
COc1ccc(S(=O)(=O)N2c3cc(Cl)ccc3Oc3nc4ccccc4nc32)cc1 | inconclusive: -298%
Cc1ccc(-n2nnnc2SCC(=O)Nc2ncc(Cc3ccccc3Cl)s2)cc1 | active: 79.4%
CC1=C(C(=O)Nc2cccc(F)c2)C(c2ccsc2)C2=C(CC(C)(C)CC2=O)N1 (centres undefined) | inconclusive: -182%
COc1cc(NC(=O)c2cccs2)c(OC)cc1NC(=O)CCC(=O)Nc1ccc(C)cc1 | active: 67.7%
COC(=O)CCC(=O)Nc1nnc(C(F)(F)F)s1 | inconclusive: 121%
COc1ccc(/C=N/NC(=O)COc2ccccc2-c2ccccc2)cc1 | inconclusive: -107%
Cc1cccc(NC(=O)CCCSc2nc3ccccc3[nH]2)c1 | inactive: -2.4%
CCOc1ccc(CCNC(=O)/C=C/c2ccco2)cc1OCC | active: 81.2%

SMILES | inhibition
COc1cccc(CNC(=O)CN(c2ccc(C(C)C)cc2)S(=O)(=O)c2c(C)noc2C)c1 | inactive: -3.7%
c1ccc(-c2cn(-c3ccccc3)c3[n+]2CCS3)cc1 | inactive: 3.5%
Cc1ccc(Sc2c(CO)c(-c3ccccc3)nn2C)cc1 | inconclusive: -214%
COc1cccc(N/C(N)=N/c2nc(CSc3ccccn3)cc(=O)[nH]2)c1 | inconclusive: -277%
CCOCCn1c(=NC(=O)c2cc3ccccc3oc2=O)sc2cc(S(N)(=O)=O)ccc21 | inconclusive: -11%
Cc1cc(C(=O)N2CCc3c([nH]c4ccccc34)C2c2cccc(Cl)c2)nn1C (centres undefined) | active: 67.2%
CCOc1ccc(N(CC(=O)Nc2ccccc2OCC)S(=O)(=O)c2c(C)noc2C)cc1 | inconclusive: -374%
COc1cc([C@@H]2c3cc4c(cc3[C@H](O)[C@H]3COC(=O)[C@H]23)OCO4)cc(OC)c1OC | inconclusive: -172%
CCNc1ncnc2c1cnn2C | inactive: 8.3%
Cc1ccc(C)c(NS(=O)(=O)c2ccc(-c3cnc(C4CC4)o3)cc2)c1 | inconclusive: -200%
Cc1cccc(C(=O)N2CCN(CCNC(=O)C(=O)Nc3ccc(F)cc3)CC2)c1 | inconclusive: 128%
O=C(COC(=O)c1cc2ccccc2cc1O)Nc1cccnc1Cl | inconclusive: -5.8%
COCCNC(=O)/C(C#N)=C\c1ccc(CNS(=O)(=O)c2ccc(C)cc2)o1 | inactive: -0.7%
C=CCNC(=S)NNC(=O)C(CCCC)CC(C)(C)O (centres undefined) | inconclusive: -42.5%
COc1ccc(OCCNc2cc(Cl)ccc2[N+](=O)[O-])cc1 | inconclusive: -57.1%
CCOc1ccc(CCNC(=O)CCC(=O)N2CCOc3ccc(C)cc32)cc1OCC | active: 79.8%
O=C(CSc1nc2[nH]ncc2c(=O)[nH]1)NCc1ccccc1 | inconclusive: -60.1%
COc1ccc(CCNC(=O)C2CCN(S(=O)(=O)c3ccc(F)cc3)CC2)cc1 | inactive: -2.3%
CCOc1ccc(CCNC(=O)CCC(=O)N2CCSc3ccccc32)cc1OCC | active: 91.2%
O=C1/C(=C/c2ccc([N+](=O)[O-])cc2)CCC1C1CCCC1 (centres undefined) | active: 54.5%
